{"source": "the supplement of paper PMC9938546", "note": "Structures can show the parent of a compound that is named as a salt. Some of the results follow. Repeats are few or missing, and single values can be far off.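 Note: viability estimated indirectly by image-based GFP quantification with live-cell imaging of the constitutively GFP-expressing human colorectal cancer line, no immune cells added.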", "data": [{"tested_on": "HCT116-GFP", "experiment": "HCT116-GFP viability (GFP intensity) relative to untreated control, monoculture; higher = less cancer cell killing", "settings": "culture: HCT116-GFP monoculture; 10 µM; 72 h", "units": {"HCT116-GFP viability": "%"}, "values": [{"compound": "NCCc1cc[nH]n1", "note": "[Betazole hydrochloride]", "HCT116-GFP viability": 87.1}, {"compound": "Cc1c(NC(C)C)c(=O)n(-c2ccccc2)n1C", "note": "[Isopyrin hydrochloride]", "HCT116-GFP viability": 109}, {"compound": "CC(C[N+](C)(C)C)OC(N)=O", "note": "(configuration not stated) [Bethanechol chloride]", "HCT116-GFP viability": 99.7}, {"compound": "NS(=O)(=O)Cc1noc2ccccc12", "note": "[Zonisamide]", "HCT116-GFP viability": 100}, {"compound": "CN(C)CCN(Cc1ccc(Cl)cc1)c1ccccn1", "note": "[Chloropyramine hydrochloride]", "HCT116-GFP viability": 83.4}, {"compound": "COc1ccc2c(c1)C(=O)N(CCc1ccc(S(=O)(=O)NC(=O)NC3CCCCC3)cc1)C(=O)C2(C)C", "note": "[Gliquidone]", "HCT116-GFP viability": 92.2}, {"compound": "COc1ccc([C@@H]2Sc3ccccc3N(CCN(C)C)C(=O)[C@@H]2OC(C)=O)cc1", "note": "[Diltiazem hydrochloride]", "HCT116-GFP viability": 104}, {"compound": "Cc1cn([C@H]2C[C@H](N=[N+]=[N-])[C@@H](CO)O2)c(=O)[nH]c1=O", "note": "[Zidovudine, AZT]", "HCT116-GFP viability": 76.2}, {"compound": "CN(C)c1cc(NC(=O)CNC(C)(C)C)c(O)c2c1C[C@H]1C[C@H]3[C@H](N(C)C)C(O)=C(C(N)=O)C(=O)[C@@]3(O)C(O)=C1C2=O", "note": "[Tigecycline]", "HCT116-GFP viability": 101}, {"compound": "COc1cc(NS(=O)(=O)c2ccc(N)cc2)nc(OC)n1", "note": "[Sulfadimethoxine]", "HCT116-GFP viability": 127}, {"compound": "CC[N+](CC)(CC(=O)Nc1c(C)cccc1C)Cc1ccccc1", "note": "[Denatonium benzoate]", "HCT116-GFP viability": 95.7}, {"compound": "CC1(C)O[C@@H]2[C@@H](CO[C@@]3(COS(N)(=O)=O)OC(C)(C)O[C@@H]23)O1", "note": "[Topiramate]", "HCT116-GFP viability": 102}, {"compound": "Cc1cccc(Nc2ccncc2S(=O)(=O)NC(=O)NC(C)C)c1", "note": "[Torsemide]", "HCT116-GFP viability": 109}, {"compound": "NC(=O)N1c2ccccc2CC(=O)c2ccccc21", "note": "[Oxcarbazepine]", "HCT116-GFP viability": 88.3}, {"compound": "CC(C)Cn1cnc2c(N)nc3ccccc3c21", "note": "[Imiquimod]", "HCT116-GFP viability": 93.6}, {"compound": "CC(C)NC(=N)NC(=N)Nc1ccc(Cl)cc1", "note": "[Proguanil hydrochloride]", "HCT116-GFP viability": 82.9}, {"compound": "COc1ccc2c3c1O[C@H]1C[C@@H](O)C=C[C@@]31CCN(C)C2", "note": "[Galanthamine hydrobromide]", "HCT116-GFP viability": 99.6}, {"compound": "O=c1[nH]c(=O)n([C@H]2C[C@H](O)[C@@H](CO)O2)cc1C(F)(F)F", "note": "[Trifluridine]", "HCT116-GFP viability": 32}, {"compound": "Cc1nnc(SCC2=C(C(=O)O)N3C(=O)[C@@H](NC(=O)Cn4cnnn4)[C@H]3SC2)s1", "note": "[Cefazolin sodium salt]", "HCT116-GFP viability": 120}, {"compound": "S=c1[nH]cnc2nc[nH]c12", "note": "[Mercaptopurine]", "HCT116-GFP viability": 45.2}, {"compound": "CCCCCCCCNC(C)C(O)c1ccc(SC(C)C)cc1", "note": "(configuration not stated) [Suloctidil]", "HCT116-GFP viability": 17.9}, {"compound": "CC(=O)CC(c1ccc([N+](=O)[O-])cc1)c1c(O)c2ccccc2oc1=O", "note": "(configuration not stated) [Acenocoumarol]", "HCT116-GFP viability": 95.4}, {"compound": "CN(Cc1ccc(C(C)(C)C)cc1)Cc1cccc2ccccc12", "note": "[Butenafine Hydrochloride]", "HCT116-GFP viability": 86.7}, {"compound": "COc1ccccc1OCC(O)CO", "note": "(configuration not stated) [Guaifenesin]", "HCT116-GFP viability": 96}, {"compound": "NC[C@@H]1O[C@H](O[C@H]2[C@@H](O)[C@H](O[C@@H]3[C@@H](O)[C@H](N)C[C@H](N)[C@H]3O[C@H]3O[C@H](CO)[C@@H](O)[C@H](O)[C@H]3N)O[C@@H]2CO)[C@H](N)[C@@H](O)[C@@H]1O", "note": "[Paromomycin sulfate]", "HCT116-GFP viability": 103}, {"compound": "Nc1nc(CC(=O)Nc2ccc(CCNC[C@H](O)c3ccccc3)cc2)cs1", "note": "[Mirabegron]", "HCT116-GFP viability": 76.5}, {"compound": "CC(=O)[C@H]1CC[C@H]2[C@@H]3C=CC4=CC(=O)CC[C@@]4(C)[C@@H]3CC[C@]12C", "note": "[Dydrogesterone]", "HCT116-GFP viability": 110}, {"compound": "CN1[C@@H]2CC[C@H]1C[C@@H](OC(=O)c1c[nH]c3ccccc13)C2", "note": "[Tropisetron hydrochloride]", "HCT116-GFP viability": 94.2}, {"compound": "N#Cc1cc(NC(=O)C(=O)O)c(Cl)c(NC(=O)C(=O)O)c1", "note": "[Lodoxamide]", "HCT116-GFP viability": 87.3}, {"compound": "Cc1cccc(C)c1OCC(C)N", "note": "(configuration not stated) [Mexiletine hydrochloride]", "HCT116-GFP viability": 98.8}, {"compound": "COc1ccc(/C=C/C(=O)Nc2ccccc2C(=O)O)cc1OC", "note": "[Tranilast]", "HCT116-GFP viability": 99.3}, {"compound": "CCOC(=O)C1=C(COCCN)NC(C)=C(C(=O)OC)C1c1ccccc1Cl", "note": "(configuration not stated) [Amlodipine]", "HCT116-GFP viability": 32.7}, {"compound": "Cc1c(N(C)C)c(=O)n(-c2ccccc2)n1C", "note": "[Amidopyrine]", "HCT116-GFP viability": 104}, {"compound": "Oc1c(Cl)cc(Cl)c(Cl)c1Cc1c(O)c(Cl)cc(Cl)c1Cl", "note": "[Hexachlorophene]", "HCT116-GFP viability": 16.8}, {"compound": "Cc1cccc(C)c1NC(=O)C(C)N", "note": "(configuration not stated) [Tocainide hydrochloride]", "HCT116-GFP viability": 104}, {"compound": "CC(C(=O)O)c1ccc2c(c1)[nH]c1ccc(Cl)cc12", "note": "(configuration not stated) [Carprofen]", "HCT116-GFP viability": 92.5}, {"compound": "CCCCc1cc2ccccc2c(OCCN(C)C)n1", "note": "[Dimethisoquin hydrochloride]", "HCT116-GFP viability": 91.1}, {"compound": "CN(C)C(=O)C(CCN1CCC(O)(c2ccc(Cl)cc2)CC1)(c1ccccc1)c1ccccc1", "note": "[Loperamide hydrochloride]", "HCT116-GFP viability": 47.9}, {"compound": "CC(C(=O)O)c1ccc(-c2ccccc2)c(F)c1", "note": "(configuration not stated) [Flurbiprofen]", "HCT116-GFP viability": 95}, {"compound": "O=C(OCC(O)CO)c1ccccc1Nc1ccnc2cc(Cl)ccc12", "note": "(configuration not stated) [Glafenine hydrochloride]", "HCT116-GFP viability": 100}, {"compound": "C[C@H]1O[C@@H](O[C@H]2[C@@H](O)C[C@H](O[C@H]3[C@@H](O)C[C@H](O[C@H]4CC[C@@]5(C)[C@H](CC[C@@H]6[C@@H]5C[C@@H](O)[C@]5(C)[C@@H](C7=CC(=O)OC7)CC[C@]65O)C4)O[C@@H]3C)O[C@@H]2C)C[C@H](O)[C@@H]1O", "note": "[Digoxin]", "HCT116-GFP viability": 4.42}, {"compound": "COc1cc([S+](C)[O-])ccc1-c1nc2cccnc2[nH]1", "note": "(configuration not stated) [Sulmazole]", "HCT116-GFP viability": 117}, {"compound": "C(=C\\c1ccccc1)/CN1CCN(C(c2ccccc2)c2ccccc2)CC1", "note": "[Cinnarizine]", "HCT116-GFP viability": 97.8}, {"compound": "O=C(C1CCCCC1)N1CC(=O)N2CCc3ccccc3C2C1", "note": "(configuration not stated) [Praziquantel]", "HCT116-GFP viability": 100}, {"compound": "CN1CCC(=C2c3ccccc3CCc3cccnc32)CC1", "note": "[Azatadine maleate]", "HCT116-GFP viability": 94.3}, {"compound": "Nc1nc2ccc(OC(F)(F)F)cc2s1", "note": "[Riluzole hydrochloride]", "HCT116-GFP viability": 93.2}, {"compound": "COc1ccc2c(c1)c(CC(=O)O)c(C)n2C(=O)c1ccc(Cl)cc1", "note": "[Indomethacin]", "HCT116-GFP viability": 87.1}, {"compound": "C=C1c2c(Cl)ccc(O)c2C(=O)C2=C(O)[C@]3(O)C(=O)C(C(N)=O)=C(O)[C@@H](N(C)C)[C@@H]3[C@@H](O)[C@H]12.O=C(O)c1cc(S(=O)(=O)O)ccc1O", "note": "[Meclocycline sulfosalicylate]", "HCT116-GFP viability": 58.1}, {"compound": "CC(C)(C)NCC(O)COc1cccc2c1CCC(=O)N2", "note": "(configuration not stated) [Carteolol hydrochloride]", "HCT116-GFP viability": 98.6}, {"compound": "CC(=O)NCCCS(=O)(=O)O", "note": "[Acamprosate calcium]", "HCT116-GFP viability": 102}, {"compound": "CCOC(=O)O[C@]1(C(=O)COC(=O)CC)CC[C@H]2[C@@H]3CCC4=CC(=O)C=C[C@]4(C)[C@H]3[C@@H](O)C[C@@]21C", "note": "[Prednicarbate]", "HCT116-GFP viability": 84.9}, {"compound": "CC[C@H](C)[C@H](N)C1=N[C@H](C(=O)N[C@@H](CC(C)C)C(=O)N[C@H](CCC(=O)O)C(=O)N[C@H](C(=O)N[C@H]2CCCCNC(=O)[C@H](CC(N)=O)NC(=O)[C@@H](CC(=O)O)NC(=O)[C@H](Cc3cnc[nH]3)NC(=O)[C@@H](Cc3ccccc3)NC(=O)[C@H]([C@@H](C)CC)NC(=O)[C@@H](CCCN)NC2=O)[C@@H](C)CC)CS1", "note": "[Bacitracin]", "HCT116-GFP viability": 97.3}, {"compound": "COc1ccc(OC)c(C(O)CNC(=O)CN)c1", "note": "(configuration not stated) [Midodrine hydrochloride]", "HCT116-GFP viability": 102}, {"compound": "CN(C)CCN1C(=O)c2ccccc2N(C)c2ccccc21", "note": "[Dibenzepine hydrochloride]", "HCT116-GFP viability": 106}, {"compound": "CN1CCN(CCCN2c3ccccc3Sc3ccc(C(F)(F)F)cc32)CC1", "note": "[Trifluoperazine dihydrochloride]", "HCT116-GFP viability": 44.1}, {"compound": "Nc1ccn([C@H]2CC[C@@H](CO)O2)c(=O)n1", "note": "[Zalcitabine]", "HCT116-GFP viability": 107}, {"compound": "CN(C(=O)C(Cl)Cl)c1ccc(OC(=O)c2ccco2)cc1", "note": "[Diloxanide furoate]", "HCT116-GFP viability": 103}, {"compound": "CC(=O)c1ccc2c(c1)N(CCCN(C)C)c1ccccc1S2", "note": "[Acetopromazine maleate salt]", "HCT116-GFP viability": 84.5}, {"compound": "CN(C)CCOC(C)(c1ccccc1)c1ccccn1", "note": "(configuration not stated) [Doxylamine succinate]", "HCT116-GFP viability": 90.5}, {"compound": "CC(C)(C#N)c1cc(Cn2cncn2)cc(C(C)(C)C#N)c1", "note": "[Anastrozole]", "HCT116-GFP viability": 85.9}, {"compound": "Oc1c(I)cc(Cl)c2cccnc12", "note": "[Clioquinol]", "HCT116-GFP viability": 60.7}, {"compound": "O=C(O)c1cn(C2CC2)c2cc(N3CCNCC3)c(F)cc2c1=O", "note": "[Ciprofloxacin hydrochloride monohydrate]", "HCT116-GFP viability": 98.5}, {"compound": "C#CCN[C@@H]1CCc2ccccc21", "note": "[Rasagiline]", "HCT116-GFP viability": 91}, {"compound": "COc1ccc(-c2cc(=S)ss2)cc1", "note": "[Anethole-trithione]", "HCT116-GFP viability": 92.8}, {"compound": "COc1cc(C(=O)NCc2ccc(OCCN(C)C)cc2)cc(OC)c1OC", "note": "[Trimethobenzamide hydrochloride]", "HCT116-GFP viability": 104}, {"compound": "C1CCC(C(CC2CCCCN2)C2CCCCC2)CC1", "note": "(configuration not stated) [Perhexiline maleate]", "HCT116-GFP viability": 4.24}, {"compound": "CC(=O)[C@@]1(O)CC[C@H]2[C@@H]3C[C@H](C)C4=CC(=O)C=C[C@]4(C)[C@@]3(F)[C@@H](O)C[C@@]21C", "note": "[Fluorometholone]", "HCT116-GFP viability": 115}, {"compound": "CCc1nc(N)nc(N)c1-c1ccc(Cl)cc1", "note": "[Pyrimethamine]", "HCT116-GFP viability": 40.8}, {"compound": "CC(C)NCC(O)COc1ccc(CCOCC2CC2)cc1", "note": "(configuration not stated) [Betaxolol hydrochloride]", "HCT116-GFP viability": 102}, {"compound": "C[C@H]1c2cccc(O)c2C(=O)C2=C(O)[C@]3(O)C(=O)C(C(N)=O)=C(O)[C@@H](N(C)C)[C@@H]3[C@@H](O)[C@@H]21", "note": "[Doxycycline hydrochloride]", "HCT116-GFP viability": 65.2}, {"compound": "CCCC1C(=O)N2C(N(C)C)=Nc3ccc(C)cc3N2C1=O", "note": "(configuration not stated) [Azapropazone]", "HCT116-GFP viability": 99.7}, {"compound": "Clc1ccc(C(Cn2ccnc2)OCc2ccsc2Cl)c(Cl)c1", "note": "(configuration not stated) [Tioconazole]", "HCT116-GFP viability": 64.5}]}]}
